Reference: PubChem BioAssay AID2147 (National Center for Advancing Translational Sciences (NCATS), 2009)
The whole screen tested about 230,000 compounds, of which about 3,600 (1.6%) were called active. Inconclusive means that the source gave no clear call. Such entries were picked first, then a sample of the others. Calls follow the shape of the dose curve; as a rule, active = well fitted inhibition curve with a large enough effect (not every such curve was filed as active); inconclusive = small, poorly fitted or top-dose-only effect, or another doubt; inactive = no such curve, though single readings can be large or run the other way. Where the call is inconclusive, the potency comes from a doubtful curve fit.

molecular target: Lysine-specific demethylase 4E (Homo sapiens) (UniProt B2RXH2); assay: qHTS Assay for Inhibitors of Human Jumonji Domain Containing 2E (JMJD2E); conditions: JMJD2E catalytic domain, FDH-coupled NADH fluorescence (FDH is formaldehyde dehydrogenase); series mostly up to 57.1 µM; activity change, negative = inhibition: at the top concentration
Sequence of UniProt B2RXH2 (B2RXH2 whole entry, looked up, the tested form may be a part): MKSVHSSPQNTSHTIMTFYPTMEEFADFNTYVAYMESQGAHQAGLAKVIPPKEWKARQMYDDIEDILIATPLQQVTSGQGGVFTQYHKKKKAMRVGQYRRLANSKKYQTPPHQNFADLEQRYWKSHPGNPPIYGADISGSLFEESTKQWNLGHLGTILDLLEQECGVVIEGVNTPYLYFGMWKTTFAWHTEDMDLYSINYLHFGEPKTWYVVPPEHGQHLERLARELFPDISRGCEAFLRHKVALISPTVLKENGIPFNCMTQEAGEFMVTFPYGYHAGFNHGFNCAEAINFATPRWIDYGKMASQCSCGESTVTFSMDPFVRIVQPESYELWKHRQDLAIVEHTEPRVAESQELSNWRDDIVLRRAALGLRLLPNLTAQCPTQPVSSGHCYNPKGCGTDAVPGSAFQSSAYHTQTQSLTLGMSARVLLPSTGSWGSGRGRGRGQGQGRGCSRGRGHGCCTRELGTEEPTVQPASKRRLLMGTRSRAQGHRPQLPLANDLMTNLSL
Also: nearly all actives have a fitted effect of over 50% in size.
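For activity change, negative = inhibition in this document: 0% = wells with enzyme and -100% = buffer wells without enzyme.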
Potency is read from the fitted curve at half-maximal effect; tags tell the direction and shape of the fitted curve.

Row | SMILES | activity change, negative = inhibition | Potency
1 | Cc1cc(C(=O)NCc2ccco2)c2ccccc2n1 | inactive: -0.757% | –
2 | Cc1cc(=O)[nH]c2n[nH]c(-c3ccccc3)c12 | – | inconclusive: 31.6 µM [inhibitor, partial curve]
3 | O=c1c2ccccc2c(C=Nc2cccc(S(=O)(=O)NCc3ccco3)c2)c(O)n1-c1ccc(Cl)cn1 | inactive: -6.66% | –
4 | Cc1cccc(C(=O)NC2C(=O)NNC2c2ccc(Cl)cc2)c1 (configuration not stated) | – | inconclusive: 0.631 µM [inhibitor, full curve]
5 | CCC(Sc1nc(C)cc(=O)[nH]1)C(=O)Nc1sc2c(c1C#N)CCCC2 (configuration not stated) | inactive: 7.01% | –
6 | COc1cc(/C=C(\C#N)c2ccccn2)ccc1OCC(=O)Nc1ccc(Br)cc1 | – | inconclusive: 25.1 µM [inhibitor, partial curve]
7 | C=CCSc1nc2sc(-c3ccccc3)cc2c(=O)n1N | – | inconclusive: 35.5 µM [inhibitor, partial curve]
8 | CCOC(=O)c1cnc(-n2nc(C)cc2C)nc1NC(C)c1ccccc1 (configuration not stated) | – | inconclusive: 28.2 µM [inhibitor, single point]
9 | N#CC1=C2C=CC=CN2CC1=O | – | inconclusive: 28.2 µM [inhibitor, single point]
10 | O=C(c1cc(=O)[nH]c2ccccc12)N1CCN(c2ccc([N+](=O)[O-])cc2)CC1 | inactive: -12.2% | –
11 | NC(=O)CSc1nnc(-c2ccc(S(=O)(=O)N3CCOCC3)cc2)n1CC1CCCO1 (configuration not stated) | – | inconclusive: 28.2 µM [inhibitor, single point]
12 | Cc1ccccc1-c1n[nH]c(=S)n1Cc1ccccc1 | inactive: 8.41% | –
13 | N#CC1=C(N)SC(N)=C(C#N)C1CCc1ccccc1 | – | inconclusive: 39.8 µM [inhibitor, single point]
14 | Clc1ccc(-c2ccc(/C=N/Nc3cc(N4CCOCC4)nc(N4CCOCC4)n3)o2)cc1 | – | inconclusive: 3.16 µM [inhibitor, partial curve]
15 | O=S1(=O)N=C(Nc2ccc(S(=O)(=O)N3CCCCC3)cc2)c2ccccc21 | – | inconclusive: 20 µM [inhibitor, partial curve]
16 | CSc1nc2ccccc2cc1/C=C(\C#N)c1ccccc1 | – | inconclusive: 25.1 µM [inhibitor, partial curve]
17 | Cc1cc2cc(CN(Cc3ccco3)S(=O)(=O)c3c(C)ccc4nsnc34)c(=O)[nH]c2cc1C | – | inconclusive: 39.8 µM [inhibitor, single point]
18 | O=C(Nc1ncc(Cc2ccc(SC(F)F)cc2)s1)c1ccc(OC(F)F)cc1 | inactive: 167% | –
19 | CS(=O)(=O)c1ccc(N)cc1 | inactive: -2.47% | –
20 | Cc1ccc2nc(C)cc(C(=O)OCC(=O)Nc3cccnc3Cl)c2c1 | – | inconclusive: 28.2 µM [inhibitor, partial curve]
21 | NNc1nc2c(-c3ccc(F)cc3)nnn2c2ccccc12 | – | inconclusive: 22.4 µM [inhibitor, partial curve]
22 | CCCOc1ccc(C(=O)NNC(=S)NC(=O)CC)cc1 | inactive: -19% | –
23 | Cc1ccc(C2C(C(=O)c3ccco3)=C(O)C(=O)N2c2ncccn2)cc1 (configuration not stated) | inactive: -5.49% | –
24 | Cc1cc(C)cc(NC(=O)CCNS(=O)(=O)c2ccc3c(c2)oc(=O)n3C)c1 | inactive: 5.78% | –

Row | SMILES | activity change, negative = inhibition | Potency
25 | COc1ccc(-c2coc3cc(O)ccc3c2=O)cc1OC | – | inconclusive: 35.5 µM [inhibitor, single point]
26 | O=C(NCC1CC1)c1ccc(Oc2cc(Cl)cc(Cl)c2)o1 | inactive: 1.15% | –
27 | CCOCCCn1c(=NC(C)=O)c(C#N)cc2c(=O)n3cccc(C)c3nc21 | – | inconclusive: 25.1 µM [inhibitor, partial curve]
28 | CCCCCNCC(=O)Nc1cccc(C(=O)Nc2cccc(C(F)(F)F)c2)c1 | – | inconclusive: 25.1 µM [inhibitor, single point]
29 | c1ccc(CCNc2ccnc3cc4ccccc4cc23)cc1 | – | inconclusive: 14.1 µM [inhibitor, partial curve]
30 | O=C(O)c1ccc2c(c1)C(=O)N(Cc1ccccc1)C2=O | inactive: 1.78% | –
31 | COc1ccc(OCC(=O)N2CCc3c([nH]c4ccccc34)C2c2ccccn2)cc1 (configuration not stated) | inactive: -4.45% | –
32 | COc1cccc(NC(=O)CSc2ccccn2)c1 | inactive: 1.92% | –
33 | O=C(Cn1c2ccccc2c2nc3n(c(=O)c21)CCS3)Nc1ccccc1C(F)(F)F | – | inconclusive: 31.6 µM [inhibitor, partial curve]
34 | CC(=O)c1cnc2cc(-c3ccc(C)cc3)nn2c1C | – | inconclusive: 25.1 µM [inhibitor, partial curve]
35 | COc1ccc2c(c1)C(=O)N(CCc1ccc(S(=O)(=O)NC(=O)NC3CCCCC3)cc1)C(=O)C2(C)C | – | active: 7.94 µM
36 | COc1ccccc1NC(=S)NC(NC(=O)c1ccco1)C(Cl)(Cl)Cl (configuration not stated) | inactive: -1.52% | –
37 | CCn1c(N)c(C(=O)NCCOC)sc1=S | inactive: -3.15% | –
38 | C=CCc1ccc(O)c(-c2cc(CC=C)ccc2O)c1 | – | inconclusive: 28.2 µM [inhibitor, partial curve]
39 | O=C(CSc1nc(-c2ccco2)cc(C(F)(F)F)n1)NCC1CCCO1 (configuration not stated) | – | inconclusive: 39.8 µM [inhibitor, single point]
40 | O=C(Nc1cc(S(=O)(=O)Nc2ccc(Cl)cc2)ccc1N1CCCCC1)c1ccc(F)cc1Cl | – | inconclusive: 39.8 µM [inhibitor, single point]
41 | COc1c(Cl)cc(Cl)cc1C(=O)Nc1ccc(NC(=O)c2cccs2)cc1 | – | inconclusive: 39.8 µM [inhibitor, single point]
42 | COCCNC(=O)c1ccccc1NC(=O)c1ccc(Cl)c(S(=O)(=O)Nc2ccc(C)cc2C)c1 | – | inconclusive: 35.5 µM [inhibitor, single point]
43 | O=[N+]([O-])c1ccccc1S(=O)(=O)N1CCN(Cc2cc3c(cc2O)OCO3)CC1 | inactive: -10.1% | –
44 | COCc1cc(=O)n2c(-c3ccc(C)cc3)n[nH]c2n1 | – | inconclusive: 35.5 µM [inhibitor, single point]
45 | Cc1cc(C)n2nc(C(=O)Nc3c(C)nn(Cc4ccc(F)cc4)c3C)cc2n1 | – | inconclusive: 35.5 µM [inhibitor, partial curve]
46 | COc1ccc(-c2cc(C(F)F)n3ncc(C(=O)N4CCc5ccccc5C4)c3n2)cc1 | – | inconclusive: 22.4 µM [inhibitor, single point]
47 | Cc1c(OC(=O)c2ccc([N+](=O)[O-])cc2)c2c(c[n+]1C)COC(C)(C)OC2 | – | inconclusive: 25.1 µM [inhibitor, single point]
48 | CC(C)CC1(C(=O)O)C=CCN1C(=O)c1ccccc1 (configuration not stated) | inactive: -0.574% | –

Row | SMILES | activity change, negative = inhibition | Potency
49 | COc1ccc(C(=O)NNC(=O)C(Cc2ccc(O)cc2)NC(=O)c2ccccc2NC(=O)c2ccc(OC)cc2)cc1 (configuration not stated) | – | inconclusive: 31.6 µM [inhibitor, partial curve]
50 | CCCCC[C@H](O)/C=C/[C@@H]1[C@@H](CC(=O)CCCCC(=O)O)[C@@H](O)C[C@H]1O | inactive: -7.79% | –
51 | COc1ccc(NC(=S)N(Cc2ccc(N(C)C)cc2)Cc2ccco2)cc1 | inactive: 2.32% | –
52 | COc1ccc2[nH]c(=O)c(CN(Cc3ccccc3OC)Cc3nnnn3CC3CCCO3)cc2c1 (configuration not stated) | – | inconclusive: 31.6 µM [inhibitor, partial curve]
53 | Cc1cc(C)c2[nH]c(=S)cc(C)c2c1 | inactive: 4.96% | –
54 | CCCCN(C)S(=O)(=O)c1c(C)[nH]c(=O)[nH]c1=O | inactive: 0.402% | –
55 | COc1ccc2oc(=O)c(-c3nc4ccccc4o3)cc2c1 | – | inconclusive: 11.2 µM [inhibitor, partial curve]
56 | CCOC(=O)N1CCC(Nc2nc3ccccc3n3nnnc23)CC1 | – | inconclusive: 28.2 µM [inhibitor, partial curve]
57 | O=C(N/N=C/c1cccc([N+](=O)[O-])c1)c1ccc2nc[nH]c2c1 | inactive: 3.53% | –
58 | CN1CCN(C(=O)c2cc3c(ccc4ccccc43)oc2=O)CC1 | – | inconclusive: 28.2 µM [inhibitor, partial curve]
59 | Cc1cc(C2=NNC(=NCCc3ccccc3)SC2)c(C)n1CC1CCCO1 (configuration not stated) | – | inconclusive: 15.8 µM [inhibitor, partial curve]
60 | O=C(/C=C/c1ccc(-c2ccccc2[N+](=O)[O-])o1)c1ccc(F)cc1 | inactive: -5.6% | –
61 | CCCOC(=O)C1=C(C)NC2=C(C(=O)CCC2)C1c1cccs1 (configuration not stated) | – | inconclusive: 25.1 µM [inhibitor, single point]
62 | Cc1ccn2cc(CCNC(=O)C3CC=CCC3C(=O)O)nc2c1 (configuration not stated) | – | inconclusive: 35.5 µM [inhibitor, partial curve]
63 | Cc1sc2nc(CSCC(=O)Nc3c(Cl)cccc3Cl)[nH]c(=O)c2c1C | – | inconclusive: 28.2 µM [inhibitor, partial curve]
64 | Cc1ccccc1-c1nc(CS(=O)(=O)CC(=O)NCCCN2CCCC2)c(C)o1 | – | inconclusive: 39.8 µM [inhibitor, single point]
65 | CN(CC(=O)Nc1ccc(SC(F)F)cc1)C1CCCCC1 | inactive: -7.89% | –
66 | COC(=O)[C@@H](N)CS | – | inconclusive: 12.6 µM [inhibitor, partial curve]
67 | CC1CC(C)CN(CCOc2ccc(Cl)cc2Cl)C1 (configuration not stated) | – | inconclusive: 39.8 µM [inhibitor, single point]
68 | Cc1ccc(Nc2nc(-c3sc(NC(=O)c4cccc(Cl)c4)nc3C)cs2)cc1 | inactive: -5.9% | –
69 | CCOC(=O)CNC(=O)CN1C(=O)CC(c2ccccc2)S(=O)(=O)c2ccccc21 (configuration not stated) | – | inconclusive: 39.8 µM [inhibitor, single point]
70 | O=C(CS(=O)(=O)c1ccccc1)c1ccc2c(c1)OCCO2 | – | inconclusive: 39.8 µM [inhibitor, single point]
71 | CCCCCCCCS(=O)c1sc2nc(C)cc(C)c2c1N (configuration not stated) | – | inconclusive: 35.5 µM [inhibitor, single point]
72 | COC(=O)C1OC(=O)C2O[C@@]23[C@]2(C)C(OC(C)=O)CC4C(C)(C)C(=O)CC[C@]4(C)C2CC[C@@]13C (some centres not stated) | inactive: 3.99% | –
